From PubChem BioAssay AID1508642 (National Center for Advancing Translational Sciences (NCATS), 2021)
Hit rate of the full screen: of about 43,000 compounds, about 200 (0.47%) were called active. Not shown: some 12% with an inconclusive outcome. Calls come from the whole dose curve; as a rule, active = well fitted cell-killing curve with a large enough effect; inconclusive = small, poorly fitted or top-dose-only effect, or effect the other way; inactive = flat fitted curve, though single readings scatter. The list shows a part of the results.

Experiment: Cell viability qHTS assay in S16 Pmp22-F2sN cells; note: nearly all actives have a fitted effect of over 65% in size
Settings: S16 Pmp22-F2sN Schwann cells (luciferase reporters placed in the Pmp22 gene) viability, CellTiter-Glo, 24 h; series mostly up to 57.5 µM; activity change, negative = cytotoxicity: at the top concentration
In short: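 CellTiter-Glo counter-screen, qHTS, 1536-well. Cells: S16(c9) Pmp22-F2sN, 500-1,000/well in DMEM + 10% FBS. Cpd 23 nL pin transfer, 24 h, 37C/5% CO2. Read: luminescence, CCD imager.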
% is set by controls: 0 for no effect and ±100 for the full control effect.

SMILES | activity change, negative = cytotoxicity
CC(C)N(C(=O)Cn1cc(SCC(=O)Nc2ccccc2C(F)(F)F)c2ccccc21)C(C)C | inactive: -0.836%
CCOc1ccc(C2C(C(=O)Nc3ccccc3C)=C(C)Nc3nnnn32)cc1 (stereo not given) | inactive: -3.71%
COc1ccc(C)cc1NC(=O)c1oc2ccc(S(=O)(=O)N3CCC4(CC3)OCCO4)cc2c1C | inactive: 0.669%
Cc1ccc(C)c(NC(=O)/C(C#N)=C/c2ccc(C(C)C)cc2)c1 | inactive: 0.0767%
Cc1nn(C(=O)c2c(F)cccc2F)c(C)c1S(=O)(=O)N1CCCCCC1 | inactive: 7.35%
CCCc1nnc(NC(=O)Nc2ccccc2Cl)s1 | inactive: -0.993%
CCOc1ccc(OCC)c(NC(=O)C2CCCN(S(=O)(=O)c3cc(Br)cc4c3N(C(=O)CC)CC4)C2)c1 (stereo not given) | inactive: -0.726%
Cc1nc2nc(C)c(NS(=O)(=O)c3ccc(CC(C)C)cc3)c(=O)n2[nH]1 | inactive: -0.423%
COc1ccc(NC(=O)Cn2cc(C(=O)c3ccccc3OC)c(=O)c3ccc(C)nc32)cc1OC | inactive: -2.55%
Cn1c(=O)c2c(-c3ccccc3)n(CCCO)cc2n(C)c1=O | inactive: 1.5%
CCn1c(CN2CCOCC2)nc2cc(NC(=O)c3cccc([N+](=O)[O-])c3)ccc21 | inactive: 0.0389%
O=C1CC(c2c(F)cccc2Cl)c2c(ccc3ccccc23)N1 (stereo not given) | inactive: 2.29%
COc1cc(C2c3c(oc4ccc(F)cc4c3=O)C(=O)N2Cc2ccc3c(c2)OCO3)ccc1O (stereo not given) | inactive: 3.57%
CCCCN(CC)C(=O)c1c[nH]c2ccc(S(=O)(=O)N(C)c3ccc(Cl)cc3)cc2c1=O | inactive: -1.06%
COC(=O)c1cccnc1-n1c(=O)c2cccnc2n(CC(=O)Nc2cccc(C)c2)c1=O | inactive: 14.9%
COc1ccc(NC(=O)Cc2c(C(=O)O)[nH]c3ccccc23)cc1OC | inactive: 5.25%
COc1ccc(CNC(=O)Cc2coc3ccc(C)cc23)cc1 | inactive: -5.85%
Cc1ccc(NC(=O)c2oc3ccc(S(=O)(=O)N4CCOCC4)cc3c2C)c(C)c1 | inactive: 0.83%
CCN(c1ccccc1C)S(=O)(=O)c1nnc(NC(=O)c2ccccc2C)s1 | inactive: -27.3%
CC(C)Oc1ccc(CNC(=O)c2ccc3c(c2)nc2n3CCOC2)cc1 | inactive: 4.18%
CCOc1ccc(C(=O)/C=C/c2cn(CC(O)CN3CCc4ccccc43)c3ccccc23)cc1 (stereo not given) | inactive: -1.25%
Cc1cc(C)cc(N2C(=O)N(Cc3cc(=O)n4ccccc4n3)c3ccccc3S2(=O)=O)c1 | inactive: -2.44%
COc1cc(OC)c(OC)cc1CN1CCc2nc(N3CCN(C)CC3)ncc2C1 | inactive: 4.65%
CCc1nn(CC(=O)NCc2ccc(C)cc2)c(=O)c2cc3occc3n12 | inactive: 8.22%

SMILES | activity change, negative = cytotoxicity
O=C(CCn1c(=O)c2ccccc2n(Cc2cccc(F)c2)c1=O)NCc1ccc2c(c1)OCO2 | inactive: 3.76%
COc1ccc(N2CCN(c3nc4ccc(C(=O)c5ccccc5)cc4n4cnnc34)CC2)cc1 | inactive: 19%
O=C(CN1C(=O)COc2ccc(S(=O)(=O)N3CCCCCC3)cc21)N1CCN(c2ccc(F)cc2)CC1 | inactive: -2.42%
COc1ccc(-c2cc3nc(C)c(CCC(=O)NCCc4ccc(Cl)cc4)c(C)n3n2)c(OC)c1 | inactive: -5.22%
Cc1ccc(Cn2c(=O)c3cccnc3n(Cc3ccc(C)cc3)c2=O)cc1 | inactive: 13.4%
Cc1ccc(Cn2c(=O)n(-c3cccc(C(F)(F)F)c3)c(=O)c3c(C)c(C)sc32)c(C)c1 | inactive: -6.9%
Cc1cn(C)c(CC(=O)Nc2cccc(C#N)c2)c1C(=O)O | inactive: 1.32%
Cc1ccc(CSc2ncc(Cl)c(C(=O)Oc3ccccc3F)n2)cc1 | inactive: 6.29%
CCOC(=O)N1CCC(NC(=O)c2cnn(-c3ccc(OC)cc3)c2C2CCN(C(=O)OC(C)(C)C)CC2)CC1 | inactive: -1.7%
Cc1ccccc1NC(=O)COc1ccc2oc3c(c2c1)CCCC3 | inactive: -0.34%
Clc1ccc(-c2noc3ncnc(NC4CCCCC4)c23)cc1 | inactive: -0.473%
Cc1ccc(CCNC(=O)c2cnc3c(-c4ccc(F)cc4)c(C)nn3c2C)cc1 | inactive: -3.83%
Cc1ccccc1OCCn1cc(C(=O)c2ccco2)c2ccccc21 | inactive: -1.25%
Cc1ccc(-c2nn3c(=O)cc(CN4CCN(C(=O)Nc5cccc(C(F)(F)F)c5)CC4)nc3s2)cc1 | inactive: 13.9%
NC(=O)Cn1c(=O)n(CCCCCC(=O)NCc2ccc3c(c2)OCO3)c(=O)c2sccc21 | inactive: 14.4%
CC(CNC(=O)c1ccc(Cn2c(=O)c3cccn3c3cccnc32)cc1)c1ccccc1 (stereo not given) | inactive: 0.458%
COc1cc(CNC(=O)c2ccc3nc(Cc4ccccc4)oc3c2)cc(OC)c1OC | inactive: -32.2%
COc1ccc2c(c1)c1c(c(=O)n(-c3ccc(OC)c(OC)c3)c(=O)n1Cc1ccc(F)cc1)n2C | inactive: -14.9%
Cc1cn2c(=O)cc(COC(=O)c3ccc(NC(=O)c4ccccc4C)cc3)nc2s1 | inactive: 13.2%
Cc1ccccc1CS(=O)(=O)Cc1ccc(C(=O)NCCc2ccc(Cl)cc2)o1 | inactive: -20.2%
COc1cccc(Cn2nnc(C(=O)NCc3ccc(Cl)cc3Cl)c2N)c1 | inactive: -16.2%
CCc1cccc(NC(=O)Cn2c(=O)n3nc(-c4cccc(F)c4)nc3c3ccccc32)c1 | inactive: 11.4%
Cc1ccccc1C(=O)Nc1sc2c(c1C(=O)N1CCC(C)CC1)CCC(C)C2 (stereo not given) | inactive: 21.6%
CCOc1cc2[nH]c(=O)n(CCCCC(=O)N3CCN(c4ccccc4OC)CC3)c(=O)c2cc1OCC | inactive: 2.26%

SMILES | activity change, negative = cytotoxicity
O=c1c(S(=O)(=O)c2ccccc2)cn(Cc2ccccc2)c2cc(N3CCCC3)c(F)cc12 | inactive: -18.2%
Cc1nn(C)c2c1c(C(F)(F)F)cc(=O)n2Cc1ccc(Br)cc1F | inactive: 6.83%
Cn1c(=O)c2c(nc(CN3CCN(c4ccccc4F)CC3)n2Cc2ccc(F)cc2)n(C)c1=O | inactive: -26%
COc1ccc(OC)c(C2CC(=O)Nc3c2c(=O)[nH]c2nc4ccccc4n32)c1 (stereo not given) | inactive: -7.64%
CCOC(=O)C1CCN(CCC(=O)Nc2ccccc2OC)CC1 | inactive: -1.27%
N#Cc1ccc(NC(=O)COCc2cc(-c3ccco3)on2)cc1 | inactive: 3.08%
Cc1cccc(NC(=O)CSc2nc3n[nH]c(C)c3c(=N)n2-c2cccc(Cl)c2)c1 | inactive: -24.2%
Cc1cc(C)cc(C(=O)NCCc2sc(-c3ccc(F)cc3)nc2C)c1 | inactive: -2.61%
O=S(=O)(NCC(c1ccco1)N1CCN(c2ccccc2)CC1)c1cc(F)ccc1F (stereo not given) | inactive: -16.9%
Cc1cc(C)cc(N2CCn3c2nc2c3c(=O)n(Cc3c(F)cccc3Cl)c(=O)n2C)c1 | inactive: 6.25%
CCc1ccc(/C=C(/C#N)c2nc(-c3ccc(C)cc3)cs2)cc1 | inactive: 26.5%
CC(C)(C)OC(=O)N1CCC(c2c(C(=O)NCCN3CCOCC3)cnn2-c2cccc(Cl)c2)CC1 | inactive: 1.1%
O=C(Cn1c(=O)c(CNc2ccccc2)cc2cc3c(cc21)OCCO3)Nc1ccccc1Cl | inactive: -16.4%
CCc1ccc2oc(-c3ccc(C)c(NC(=O)Cc4ccccc4)c3)nc2c1 | inactive: 6.71%
Cc1c(C(=O)Nc2ccc(F)c(Cl)c2)sc2nc3n(c(=O)c12)CCC3 | inactive: -6.96%
COc1ccc(NC(=O)c2ccco2)cc1NC(=O)c1ccc(C#N)cc1F | inactive: 4.64%
O=C(NCCc1ccccc1)C1CCN(c2nc3ccccc3nc2C(F)(F)F)CC1 | inactive: 14%
CCCCCSc1nnc2c(n1)[nH]c1c(C)cccc12 | inactive: -19.6%
COc1ccccc1N1CCN(c2ncnc3c2cnn3-c2ccc(C)cc2)CC1 | inactive: -1.82%
COCCn1c(SCC(=O)c2ccc(C)cc2)nc2cc(C(=O)NC3CCCC3)ccc2c1=O | inactive: -0.583%
Cc1cc(C)c(NC(=O)c2oc3c(c2C)-c2[nH]ncc2CC3)c(C)c1 | inactive: 2.98%
Cc1cccc(CN2CCN(CC(=O)NCCc3ccc(Cl)cc3)C2=O)c1 | inactive: -0.64%
CCCCOc1ccc(C(=O)NCCc2sc3nc(-c4ccc(OC)cc4)nn3c2C)cc1 | inactive: 8.64%
O=C(Nc1ccc(N2CCN(c3ccc(F)cc3)CC2)c(C(=O)O)c1)c1cccs1 | inactive: 2.35%

SMILES | activity change, negative = cytotoxicity
CCOc1cc2c(cc1OCC)C(CC(=O)O)N(C(=O)Nc1ccc(Br)c(C)c1)CC2 (stereo not given) | inactive: -11.1%
CCN(CC)c1nn2c(=O)c(C(=O)NCCc3ccccc3C)cnc2s1 | inactive: -9.46%
O=C(NCc1ccc(Cl)cc1)C1CCC(CNS(=O)(=O)c2ccccc2)CC1 (stereo not given) | inactive: -14.6%
CCOc1ccc(N(C)C(=O)C2CCN(S(=O)(=O)c3c(C)noc3/C=C/c3ccc(C)cc3)CC2)cc1 | inactive: -12.1%
CCOC(=O)c1ccccc1NC(=O)CN1C(=O)CC(c2ccccc2)Sc2ccccc21 (stereo not given) | inactive: 1.15%
COc1ccc(Cl)cc1NC(=O)CSc1nc2c(oc3ccccc32)c(=O)n1Cc1ccco1 | inactive: 14%
CCCCOc1ccc(C(=O)NCc2cn3cccc(C)c3n2)cc1 | inactive: 3.01%
Cc1cccc(-c2nc3scc(CCNS(=O)(=O)c4ccc(F)c(C(F)(F)F)c4)n3n2)c1 | inactive: 1.35%
COc1ccc(CCNC(=O)c2cc3c(=O)n(C)c4ccccc4c3s2)cc1OC | inactive: -0.438%
Cc1ccc(C)c(N2CCN(S(=O)(=O)c3ccc(C(=O)N(C)C)s3)CC2)c1 | inactive: 1.91%
CCc1cc2c(cc3c(=O)n(CC(=O)N4CCN(c5cccc(C)c5C)CC4)nc(CC)n32)s1 | inactive: 8.02%
CCc1ccccc1NC(=O)CCC(=O)N1CC(C)Oc2ccc(C)cc21 (stereo not given) | inactive: -13.2%
COc1ccc(CCNCc2c(C(=O)O)c(C)n(Cc3cccc(Cl)c3)c2C)c(OC)c1OC | inactive: -0.0714%
CCn1nnc2cc(C(=O)Nc3cc(C)ccc3C)ccc21 | inactive: -9.95%
O=C(NCc1ccc(F)cc1)C(=O)Nc1ccc2nc3n(c(=O)c2c1)CCCCC3 | inactive: 8.76%
Cc1ccc(-c2cc3ncc4c(n3n2)-c2cc(Cl)ccc2OC4)cc1 | inactive: 17.1%
COc1ccc(NC(=O)CCNS(=O)(=O)c2ccc3c(c2)CCCC(=O)N3)cc1 | inactive: 16.4%
COc1ccc(NC(=O)CC2C(=O)N(c3cccc(OC)c3)C(=O)N2CCC2=CCCCC2)cc1 (stereo not given) | inactive: -26.6%
O=C(Cn1cc(S(=O)(=O)Cc2ccccc2Cl)c2ccccc21)NCCc1ccccc1 | inactive: 24.3%
COc1ccc(NC(=O)c2c(NC(=O)COc3ccccc3)sc3c2CCCCC3)cc1 | inactive: -2.62%
CCOc1ccccc1CNS(=O)(=O)c1cc2c(cc1C)NC(=O)CO2 | inactive: 0.828%
Cc1ccccc1CNC(=O)CCC(=O)N1CCSc2ccccc21 | inactive: -14.2%
CC1CCC(NC(=O)C2(C)Cc3ccccc3C(=O)N2Cc2ccc(Cl)cc2)CC1 (stereo not given) | inactive: 7.24%
